From PubChem BioAssay AID485367 (National Center for Advancing Translational Sciences (NCATS), 2010)
In all, about 330,000 compounds went through this assay and about 560 (0.17%) were called active. Inconclusive results, whose numbers are uncertain, are shown with a selection of clear calls. Calls come from the whole dose curve; as a rule, active = well fitted inhibition curve with a large enough effect; inconclusive = small, poorly fitted or top-dose-only effect, or effect the other way; inactive = flat fitted curve, though single readings scatter. No potency is given beside an inconclusive call; the fits are too rough.
Note: nearly all actives have a fitted effect of over 60% in size.
Potency is the fitted concentration of half-maximal effect; tags give direction and shape of the fitted curve.

These molecules were tested against ATP-dependent 6-phosphofructokinase (Trypanosoma brucei brucei) (UniProt O15648) (assay: qHTS Assay to Find Inhibitors of T. brucei phosphofructokinase). Details: T. brucei PFK, ADP-Glo luminescence; series mostly up to 57.5 µM.
UniProt O15648, sequence (O15648 whole entry, looked up): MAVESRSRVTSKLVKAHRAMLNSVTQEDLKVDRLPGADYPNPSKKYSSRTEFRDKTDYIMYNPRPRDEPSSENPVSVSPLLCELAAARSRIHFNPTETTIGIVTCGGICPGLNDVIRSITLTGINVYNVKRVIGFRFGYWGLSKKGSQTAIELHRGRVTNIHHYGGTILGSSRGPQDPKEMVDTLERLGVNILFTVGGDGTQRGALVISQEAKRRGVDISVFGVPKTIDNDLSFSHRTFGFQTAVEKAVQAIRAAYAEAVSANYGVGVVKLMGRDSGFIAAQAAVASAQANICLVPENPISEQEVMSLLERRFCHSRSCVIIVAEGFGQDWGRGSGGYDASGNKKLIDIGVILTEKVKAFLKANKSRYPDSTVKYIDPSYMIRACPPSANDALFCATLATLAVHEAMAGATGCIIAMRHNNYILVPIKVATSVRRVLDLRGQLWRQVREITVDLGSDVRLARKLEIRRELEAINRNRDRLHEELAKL
How it was run: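 ADP-Glo luminescence quantified ADP after 45 min at room temperature, with 1.25 nM T. brucei PFK, 0.1 mM ATP and 0.5 mM fructose-6-phosphate in pH 8.0 TEA buffer. qHTS titrations up to 57 µM; curves classified by quality.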
With `CC1(OC(=O)c2cccs2)C(=O)C=C2C=C3CCCN3C=C2C1=O` (stereo not given) the Potency was “inactive”.
With `Cn1cc(S(=O)(=O)Nc2ccc(OC(F)(F)F)cc2)c(=O)n(C)c1=O` the Potency was “inactive”.
With `CCOC(=O)C(C(C)C)C(N)Cc1ccc(F)cc1` (stereo not given) the Potency was inconclusive [falling, single point].
`O=C(NNC(=O)c1ccccc1F)c1cccc(-n2cccc2)c1` was tested, and the Potency was inconclusive [falling, full curve].
For `CCOC(=O)N1CCN=C1SCc1ccc(Cl)c(Cl)c1`, the Potency was inconclusive [falling, single point].
`CCn1c(=S)[nH]c2sc3c(c2c1=O)CCCC3` was tested, and the Potency was “inactive”.
With `CCOc1ccc(/C=N/NC(=O)c2[nH]ncc2Br)c(O)c1` the Potency was inconclusive [falling, partial curve].
With `CCc1ccccc1S(=O)(=O)Cc1ccc(C(=O)NC2CCCC2)o1` the Potency was “inactive”.
In the case of `O=C(N/N=C/c1sc2ccccc2c1O)c1cccc2ccccc12`, the Potency is reported as inconclusive [activator, partial curve].
In the case of `NNC(=O)c1ccc(CSc2n[nH]c(=O)[nH]c2=O)cc1`, the Potency is reported as inconclusive [falling, single point].
`Cc1[nH]nc2c1C(c1ccc(-c3ccccc3C#N)o1)C(C#N)=C(N)O2` (stereo not given) was tested, and the Potency was inconclusive [falling, single point].
For `CCOC(=O)Cc1csc(N/N=C/c2ccccc2)n1`, the Potency was “inactive”.
In the case of `Cc1cc(NS(=O)(=O)c2ccc(NC(=O)COc3ccc(Cl)cc3)cc2)no1`, the Potency is reported as active: 5.36 µM.
For `Cc1ccn2c(=O)nc(SCC(=O)NCc3ccc4c(c3)OCO4)nc2c1`, the Potency was inconclusive [falling, single point].
With `CCN(C(=O)CN1CCN(c2ccc(O)cc2)CC1)c1c(N)n(Cc2ccccc2)c(=O)[nH]c1=O` the Potency was inconclusive [falling, partial curve].
With `COc1cc(C(=O)Nc2cccc(-n3cnnn3)c2)cc(Cl)c1OC` the Potency was inconclusive [falling, single point].
In the case of `CCOc1ccc(OCC(=O)Nc2nccs2)cc1`, the Potency is reported as active: 26.9 µM.
For `Cc1cc(=O)[nH]c(Nc2ccc(Cl)cc2)n1`, the Potency was active: 21.3 µM.
With `O=C(CN1CCCc2ccccc21)NC(=O)NCc1ccco1` the Potency was inconclusive [falling, single point].
With `Cc1ccc2nc(-c3ccc(N)cc3)sc2c1` the Potency was “inactive”.
`Clc1cccc2c3c([nH]c12)CCNC3` was tested, and the Potency was inconclusive [falling, partial curve].
For `Cn1c(Oc2ccccc2NCc2cc(Br)ccc2O)cc(=O)n(C)c1=O`, the Potency was inconclusive [falling, partial curve].
For `COc1ccc(NC(=O)ON=C2c3ccccc3-c3ccccc32)cc1`, the Potency was inconclusive [activator, single point].
With `C=CC1=C(C(=O)O)N2C(=O)[C@@H](NC(=O)/C(=N\OCC(=O)O)c3csc(N)n3)[C@H]2SC1` the Potency was inconclusive [falling, partial curve].
For `CC1CCCC(C)N1/N=C/c1ccc(O)c(O)c1` (stereo not given), the Potency was inconclusive [activator, single point].
With `COc1cccc(NC(=O)N2CCN(S(C)(=O)=O)CC2)c1` the Potency was inconclusive [falling, single point].
With `CCCOc1ccc(N2CC(C(=O)Nc3ccccc3F)CC2=O)cc1` (stereo not given) the Potency was “inactive”.
`CCCC(=O)Nc1ccccc1NC(C)=O` was tested, and the Potency was “inactive”.
In the case of `O=C1c2ccc(Cl)cc2S(=O)(=O)c2cccc(C(=O)N3CCC(Cc4ccccc4)CC3)c21`, the Potency is reported as inconclusive [falling, single point].
`Cc1ccccc1OCC1Cc2c(nc(N)c(C#N)c2N)O1` (stereo not given) was tested, and the Potency was inconclusive [activator, single point].
In the case of `O=C(NN1C(=O)/C(=C/C=C/c2ccco2)SC1=S)c1ccncc1`, the Potency is reported as inconclusive [falling, single point].
For `O=C(Nc1ccon1)Nc1ccc(F)cc1F`, the Potency was “inactive”.
For `O=C1C(Cl)=C(NC(=O)c2ccccc2)C(=O)C(Cl)=C1NC(=O)c1ccccc1`, the Potency was inconclusive [falling, single point].
With `O=C(CN1CCN(S(=O)(=O)/C=C/c2ccccc2)CC1)NC(=O)NCc1ccco1` the Potency was inconclusive [falling, partial curve].
In the case of `CCc1cccc2c3c([nH]c12)C(CC)(CC(=O)O)OCC3` (stereo not given), the Potency is reported as inconclusive [falling, single point].
For `O=C(O)c1ccc2c(c1)C(=O)N([C@H](Cc1ccc(O)c(O)c1)C(=O)O)C2=O`, the Potency was inconclusive [activator, partial curve].
For `Cc1ccc(OCC(=O)Nc2cc(C(=O)O)cc(C(=O)O)c2)cc1C`, the Potency was inconclusive [falling, partial curve, poor fit].
`COCCn1c(SCC(=O)c2[nH]c(C)c(C(C)=O)c2C)nc2ccccc21` was tested, and the Potency was inconclusive [activator, full curve, poor fit].
With `COc1cc(/C=N/NC(=O)c2sc(N)c(C#N)c2C)cc(Br)c1O` the Potency was “inactive”.
For `CCOC(=O)C(C)(C)Sc1nc2c(cnn2-c2ccc(F)cc2)c(=O)[nH]1`, the Potency was inconclusive [falling, single point].
`CCCOc1ccc(/C(O)=C2\C(=O)C(=O)N(CCCOC)C23C(=O)N(C)c2ccccc23)cc1` (stereo not given) was tested, and the Potency was inconclusive [falling, single point].
`COc1cccc(OC)c1OC(=O)C1CC(=O)N(c2ccc3c(c2)OCCO3)C1` (stereo not given) was tested, and the Potency was inconclusive [falling, single point].
With `N#Cc1cccc(NC(=O)CCc2ccc(S(=O)(=O)N3CCOCC3)cc2)c1` the Potency was inconclusive [falling, single point].
`O=C(CCc1n[nH]c(=O)[nH]c1=O)N/N=C/c1ccco1` was tested, and the Potency was inconclusive [falling, partial curve].
`Cc1ccc(/C=C/C(=O)N2CCN(S(=O)(=O)c3cccs3)CC2)o1` was tested, and the Potency was inconclusive [falling, partial curve].
